Experimental data published in PubChem BioAssay AID686979 (National Center for Advancing Translational Sciences (NCATS), 2013).
Out of some 420,000 compounds screened, about 50,000 (12%) were called active. Inconclusive results, whose numbers are uncertain, are shown with a selection of clear calls. Calls follow the shape of the dose curve; as a rule, active = well fitted inhibition curve with a large enough effect; inconclusive = small, poorly fitted or top-dose-only effect; inactive = flat fitted curve, though single readings scatter. Potencies of inconclusive entries are left out as doubtful fits.

experiment: qHTS for Inhibitors of human tyrosyl-DNA phosphodiesterase 1 (TDP1): qHTS in cells in presence of CPT; settings: chicken DT40 Tdp1-/-;hTDP1 cells + 20 nM CPT, ATP luminescence, 48 h; activity change, negative = growth inhibition: at 46.2 µM (top of the series) unless noted; also: nearly all actives have a fitted effect of over 55% in size
How it was run: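 Chicken DT40 Tdp1-/- cells complemented with human TDP1, 400 cells/well, exposed to compounds plus 20 nM camptothecin for at least 48 h at 37 C; viability read as ATP content by CellTiter-Glo luminescence.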
% is scaled to controls: 0 for no effect and ±100 for the full control effect; potency is read from the fitted curve at half-maximal effect; tags tell the direction and shape of the fitted curve.

Structure (SMILES)	Potency	activity change, negative = growth inhibition
FC(F)(F)c1ccccc1Cc1c(C2CCCCC2)nc2c3ccccc3ccn12	inconclusive [inhibitor, single point]	–
Cc1nc2sc3c(c2c(=O)[nH]1)CCC3	–	inconclusive: -34.7% [inhibitor]
COc1cc(OC)c2c(-c3ccccc3)cc(=O)oc2c1C(CCN1CCCC(C)C1)c1ccc(N(C)C)cc1 (stereo unspecified)	inconclusive [inhibitor, single point]	–
CN(C)S(=O)(=O)N1CCC(Oc2cccc(C(=O)NCCC3=CCCCC3)c2)CC1	active: 16.4 µM	–
NC(=O)c1ccccc1NC(=S)NC(=O)CCc1ccccc1	active: 3.66 µM	–
COc1ccc(N(C)C(=O)NCc2noc3ccc(C)cc23)c(OC)c1	inconclusive [inhibitor, single point]	–
CSc1ccccc1OCc1cc(C(=O)N2CCCC2c2nonc2C)no1 (stereo unspecified)	active: 23.1 µM	–
CCn1c(CC(=O)Nc2ccc(Cl)c(Cl)c2)nnc1SCc1ccc(Cl)cc1	–	inactive: -4.69%
Cc1ccccc1Cn1c(=O)n(CCCC(=O)NCc2ccco2)c(=O)c2ccccc21	inconclusive [inhibitor, single point]	–
O=C1CCC[C@@H]2[C@@H](Cc3ccccc3)[C@@H](Nc3ccccc3)C[C@@H]3CCN1[C@@H]32	inconclusive [inhibitor, single point]	–
CCC(Sc1nncn2c1cc1sccc12)C(=O)Nc1cccc(OC)c1 (stereo unspecified)	inconclusive [inhibitor, single point]	–
COc1ccc(/C=N/NC(=O)c2nn(C)cc2Br)cc1CSCc1ccco1	inconclusive [inhibitor, single point]	–
OC(COc1cccc2ccccc12)CN1CCN(c2ccc(Cl)cc2)CC1 (stereo unspecified)	inconclusive [inhibitor, single point]	–
CCCn1c(N)c(C(=O)CSc2nnc(Cc3ccccc3)o2)c(=O)n(C)c1=O	inconclusive [inhibitor, single point]	–
Cc1ccc(CN2CCN(/N=C/c3ccco3)CC2)c(C)c1	–	inactive: -24%
Cc1cccc(NC(=O)C2CCCN(S(=O)(=O)c3c(C)noc3/C=C/N(C)C)C2)c1C (stereo unspecified)	inconclusive [inhibitor, single point]	–
NNc1nnc2c3cc(F)ccc3n(CCc3ccccc3)c2n1	inconclusive [inhibitor, single point]	–
NC(=O)c1ccc(NC(=O)CSc2cn(CC(=O)N3CCOCC3)c3ccccc23)cc1	–	inactive: -2.29%
Cn1c(=O)c2c(nc(SCCN3CCOCC3)n2Cc2ccccc2)n(C)c1=O	–	inactive: -23.5%
CCc1sc(NC(=O)C(C)C)nc1-c1ccccc1	–	inactive: 8.42%
COCCN(Cc1cc2cc3c(cc2nc1Cl)OCO3)C(=O)c1ccc(C)cc1	inconclusive [inhibitor, single point]	–
O=C(Cn1nc(C(=O)O)c2ccccc2c1=O)Nc1ccccc1C(F)(F)F	–	inactive: -3.06%
CCCCc1ncc(CN2CCC(CC3CCCCO3)(C(=O)OCC)CC2)[nH]1 (stereo unspecified)	inconclusive [inhibitor, single point]	–
COc1ccc(CNC(=O)NCCc2c[nH]c3ccccc23)cc1	inconclusive [inhibitor, partial curve, poor fit]	–

Structure (SMILES)	Potency	activity change, negative = growth inhibition
CCOc1ccc(NC(=O)CCS(=O)(=O)c2ccc3c(c2)CCCN3C(=O)CC)cc1	inconclusive [inhibitor, full curve, poor fit]	–
COc1cc2c(cc1NC(=O)COc1ccc3ccccc3c1)oc1ccccc12	inconclusive [inhibitor, partial curve]	–
N=c1c(C(=O)NCCN2CCOCC2)cc2c(=O)n3ccccc3nc2n1CCc1ccccc1	inconclusive [inhibitor, single point]	–
O=C(CN1CCN(C2CCCCC2)CC1)Nc1ccc(Br)cc1	–	inactive: 0.775%
O=C(CSc1cc(Cl)ccc1Cl)NCC(=O)Nc1ccc(F)c(F)c1F	inconclusive [inhibitor, single point]	–
CNC(=S)N1N=C2c3ccccc3CCC2C1c1ccccc1Cl (stereo unspecified)	inconclusive [inhibitor, single point]	–
O=S(=O)(NCCn1cccc1)c1ccc2ccccc2c1	–	inactive: -0.595%
O=C(Nc1ccccc1)Nc1nnc(COc2ccccc2F)s1	inconclusive [inhibitor, single point]	–
Cc1cc2nc3c(=O)n(C)c(=O)n(C)c3nc2cc1N=CN(C)C	–	inactive: -4.21%
CCN(C[C@H]1N[C@@](Cc2ccccc2)(C(=O)OC)[C@H]2C(=O)N(Cc3ccccc3)C(=O)[C@@H]12)C(C)=O	–	inactive: 7.66%
Cc1cc(C)n2cc(CSc3nc4ccccc4[nH]3)nc2n1	–	inactive: 1.47%
COC(=O)[C@@]12CCCCN1[C@H](c1ccc(-c3ccc(OC)cc3)cc1)[C@@H]1C(=O)N(C)C(=O)[C@@H]12	active: 20.6 µM	–
CCOc1ccc(OCCC(=O)OCC(=O)N(CC)c2c(N)n(Cc3ccccc3)c(=O)[nH]c2=O)cc1	inconclusive [inhibitor, single point]	–
O=C(c1cc(-c2ccc(Cl)s2)nc2ccccc12)N1CCCC1	inconclusive [inhibitor, single point]	–
O=C(COc1ccccc1)Nc1sc2c(c1C(=O)NCc1cccnc1)CCCC2	inconclusive [inhibitor, partial curve, poor fit]	–
CCCc1nc2oc3ccccc3c(=O)c2c(=O)n1-c1ccc(C)cc1	inconclusive [inhibitor, single point]	–
Cc1ccc(NNC(=S)Nc2ccc(C(C)C)cc2)c(C)c1	inconclusive [inhibitor, single point]	–
O=C1CCC(C(=O)N(Cc2cccs2)C2(C(=O)NC3CCCCC3)CCCCC2)N1 (stereo unspecified)	–	inconclusive: -31.8% [inhibitor]
CCOc1ccc(Oc2ccc(S(=O)(=O)N3CCOCC3)cc2NC(=O)C2=COCCO2)cc1	inconclusive [inhibitor, single point]	–
Cc1cccc(OC(C)C(=O)Nc2ccccc2C(=O)N2CCCCC2)c1 (stereo unspecified)	inconclusive [inhibitor, single point]	–
O=C(CCNS(=O)(=O)c1ccc(Cl)cc1)N1CCN(Cc2ccccc2)CC1	–	inactive: -23.6%
COC(=O)c1ccc2nc(-c3ccc(C)cc3)c(Cc3ccc(OC)cc3C)n2c1	active: 23.1 µM	–
O=C(NCC1CC1)c1cc([N+](=O)[O-])cc([N+](=O)[O-])c1	–	inactive: 0.0905%
COc1ccc([N+](=O)[O-])cc1NCc1ccccc1	inconclusive [inhibitor, partial curve]	–

Structure (SMILES)	Potency	activity change, negative = growth inhibition
CCn1cc(CN2CCC(C(=O)Nc3ccc(Oc4ccccc4F)cc3)CC2)c(C)n1	inconclusive [inhibitor, single point]	–
CCC(C)c1ccccc1OCCn1c(CCNC(=O)C2CCCCC2)nc2ccccc21 (stereo unspecified)	inconclusive [inhibitor, single point]	–
OCC1(Cc2cccc(F)c2)CCN(Cc2ccc3cccc(F)c3n2)CC1	inconclusive [inhibitor, partial curve]	–
Cc1cc(N2CCCC2)nc2ccccc12	inconclusive [inhibitor, single point]	–
COc1ccc(-n2ccnc2SCC(=O)Nc2ccc(OC)cc2OC)cc1	inconclusive [inhibitor, partial curve]	–
Cc1ccc2occ(CC(=O)Nc3ccc(S(N)(=O)=O)cc3)c2c1	–	inactive: 6.07%
CCN(CC)CCCNC(=O)c1oc2c(c1C)-c1nn(Cc3ccc(Cl)cc3)cc1CC2	inconclusive [inhibitor, single point]	–
COc1ccc(NC(=O)CCc2c(C)nn(-c3ccc(N4CCOCC4)nn3)c2C)cc1Cl	–	inactive: -13.6%
CCCCCCN1N=C(C)C(C(=O)c2ccc(Cl)cc2)C1=O (stereo unspecified)	inconclusive [inhibitor, single point]	–
Cc1ccc(N(CC(=O)NC(C)c2ccccc2)S(=O)(=O)c2c(C)noc2C)cc1 (stereo unspecified)	inconclusive [inhibitor, single point]	inconclusive: -34.3% [inhibitor]
COCCNC(=S)N/N=C/c1ccc(-c2ccc([N+](=O)[O-])cc2)o1	inconclusive [inhibitor, single point]	–
O=C(NCCOc1cccnc1)C1CCC(=O)N(Cc2ccccc2F)C1 (stereo unspecified)	–	inactive: 0.259%
C[n+]1ccc(C(=O)Nc2ccccc2Cl)cc1	–	inactive: 3.93%
Cc1ccc(CN2CCN(Cc3cccc4nccnc34)CC2CCO)cc1 (stereo unspecified)	inconclusive [inhibitor, single point]	–
COc1ccc(NC(=O)Cn2c(C)c3cnn(-c4ccccc4)c(=O)c3c2C)c(OC)c1	–	inactive: -17.6%
CCOc1ncccc1C(=O)Nc1ccc(Cl)c(S(=O)(=O)N2CCCC2)c1	active: 20.6 µM	–
C[C@@H](C(=O)N[C@H](C(=O)O)c1ccccc1)n1nnc2ccccc2c1=O	–	inactive: -5.99%
Cc1cccc(C(C(=O)NC2CCCCC2)N(Cc2cccnc2)C(=O)c2csnn2)c1 (stereo unspecified)	–	inactive: -3%
CCOC(=O)C1CCCN(C(=O)c2cccc(NC(=O)C(CC)CC)c2)C1 (stereo unspecified)	–	inactive: 9.96%
CN(C)c1ccc(/C=C/c2ccnc3ccccc23)cc1Cl	inconclusive [inhibitor, single point]	–
CCc1ccc(NC(=O)c2ccc(S(=O)(=O)NCc3cccnc3)cc2)cc1	inconclusive [inhibitor, partial curve, poor fit]	–
CCn1cc(SCC(=O)Nc2cc(C)on2)c2ccccc21	–	inconclusive: -31.1% [inhibitor]
